# Experimental data as given in patent publication US20030138423A1, “Method of treating inflammation with HIV-1 protease inhibitors and their derivatives” (CEDARS-SINAI MEDICAL CENTER, priority 2001, published 2003).
# Tested on: NF-κB
# Assay: LPS-induced NF-κB luciferase activation in HMEC
# Details: pretreatment before LPS, nelfinavir 1, 3, 6 μg/ml
smiles,measurement,value
Cc1c(O)cccc1C(=O)N[C@@H](CSc1ccccc1)[C@H](O)CN1C[C@H]2CCCC[C@H]2C[C@H]1C(=O)NC(C)(C)C [nelfinavir],LPS-induced NF-κB activation (percent NF-κB luciferase activity),inhibited LPS-induced NF-κB activation in both a dose-dependent (FIG. 1) and time-dependent manner
